Results: the BET-seq Pho4 binding data (Le et al. 2018)
Some of the results follow. These are noisy estimates, calculated here from bound and input reads.

molecular target: T1, Pho4 (S. cerevisiae) (UniProt P07270); test: relative binding free energy (BET-seq); higher = weaker binding; settings: reference: library average
T1 sequence: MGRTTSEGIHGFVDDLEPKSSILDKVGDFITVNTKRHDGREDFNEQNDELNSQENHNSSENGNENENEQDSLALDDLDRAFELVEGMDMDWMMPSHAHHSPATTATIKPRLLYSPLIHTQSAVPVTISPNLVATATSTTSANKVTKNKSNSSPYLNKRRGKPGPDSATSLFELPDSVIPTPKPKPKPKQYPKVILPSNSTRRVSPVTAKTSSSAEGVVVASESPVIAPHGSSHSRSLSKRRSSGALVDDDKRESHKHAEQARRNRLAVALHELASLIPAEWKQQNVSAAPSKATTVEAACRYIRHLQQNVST

Sequence	relative binding free energy [kcal/mol]
TGTATCACGTGGGTGA	0.01
TTGTGCACGTGGGTAG	-0.14
AAGAGCACGTGGGTCG	-0.24
GCGGGCACGTGGATAG	-0.11
TGATACACGTGCTGGT	-0.06
GTGCTCACGTGTCGGT	0.27
TGGGTCACGTGGCAAG	0.04
CTAGGCACGTGGGAGG	-0.27
AAAGGCACGTGGGAGT	-0.21
GGTCACACGTGGTAGT	0.08
TTTGCCACGTGGGTCG	-0.31
CTAAACACGTGGTTTG	0
GAGTTCACGTGGGTTC	0.26
CTCGGCACGTGGAAGG	0.15
CGACGCACGTGGGGTG	-0.23
GTCTGCACGTGATATT	0.31
GGGGTCACGTGGTTCG	0.24
GTGATCACGTGCGGTT	0.12
GAGTTCACGTGGTCTG	0.31
CGAAACACGTGTTGGG	0.12
TGGTGCACGTGGTACA	-0.25

Sequence	relative binding free energy [kcal/mol]
CTTGTCACGTGGAAGG	0.14
GTGGACACGTGGTACG	-0.03
CGTAGCACGTGATTTT	0.18
TTTAGCACGTGGGCTT	-0.18
TTAGTCACGTGGAGTC	0.11
ATGAGCACGTGGGGCG	-0.17
TATAACACGTGGGTCG	-0.15
AGGTACACGTGGTTGA	-0.01
GCGAGCACGTGAGAGG	0.23
AGGTGCACGTGGAAGG	-0.06
AATTCCACGTGTTTTT	0.16
TTGAGCACGTGGGAGG	-0.27
TAGGTCACGTGCATAG	0.13
TTGGGCACGTGAGGTC	0.08
GGTAGCACGTGCTCGG	-0.16
TTGATCACGTGTAGCG	0.21
GGTCGCACGTGATGGC	0.12
AATTGCACGTGCTTGA	0.04
ACATGCACGTGTTTTT	0.06
GTTTTCACGTGTAGCA	0.28
ATAGTCACGTGGTGAG	0.13

Sequence	relative binding free energy [kcal/mol]
GAGGTCACGTGTATTT	0.22
TTTATCACGTGGAAGA	0.25
TAGGGCACGTGGTGTG	-0.08
ATCTTCACGTGGGAGT	0.08
GAAATCACGTGATGTG	0.22
AGGAGCACGTGAGGAG	0.2
TAGTACACGTGTGTAG	0.02
AAGTGCACGTGGGTGG	-0.21
TAACTCACGTGAGGTG	0.28
AGCGACACGTGGGAGG	-0.06
ATATGCACGTGTTCGT	-0.1
GATCACACGTGTGGTG	0.18
ATCGGCACGTGTGGAA	0.06
TATGTCACGTGTTGTA	0.12
GCCGTCACGTGGTAGG	0.04
GGTATCACGTGAATTG	0.26
GGATGCACGTGAGGCG	0.24
TGGTACACGTGTATCG	0.08
TCTGGCACGTGGAGTT	0.08
TGGCGCACGTGTTGTC	-0.07
TGTGTCACGTGTACAT	-0.04
